Test results taken from PMC6919601, “Identification of Plasmodium dipeptidyl aminopeptidase allosteric inhibitors by high throughput screening” (PLoS ONE, 2019).
Out of some 110,000 compounds screened, about 230 (0.21%) showed an effect of 50% or more. This is one part of the list.

Target: DPAP1 (Plasmodium falciparum, UniProt Q8IIJ9)
Experiment: primary screen, percent inhibition; read by cleavage of a fluorogenic dipeptide substrate; higher = more effect of the substance
Set-up: species or system P. falciparum D10 trophozoite lysates; single well
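Also: 30 min substrate incubation versus DMSO and 10 µM JCP410 controls.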

Chain of DPAP1 (Q8IIJ9 whole entry, looked up): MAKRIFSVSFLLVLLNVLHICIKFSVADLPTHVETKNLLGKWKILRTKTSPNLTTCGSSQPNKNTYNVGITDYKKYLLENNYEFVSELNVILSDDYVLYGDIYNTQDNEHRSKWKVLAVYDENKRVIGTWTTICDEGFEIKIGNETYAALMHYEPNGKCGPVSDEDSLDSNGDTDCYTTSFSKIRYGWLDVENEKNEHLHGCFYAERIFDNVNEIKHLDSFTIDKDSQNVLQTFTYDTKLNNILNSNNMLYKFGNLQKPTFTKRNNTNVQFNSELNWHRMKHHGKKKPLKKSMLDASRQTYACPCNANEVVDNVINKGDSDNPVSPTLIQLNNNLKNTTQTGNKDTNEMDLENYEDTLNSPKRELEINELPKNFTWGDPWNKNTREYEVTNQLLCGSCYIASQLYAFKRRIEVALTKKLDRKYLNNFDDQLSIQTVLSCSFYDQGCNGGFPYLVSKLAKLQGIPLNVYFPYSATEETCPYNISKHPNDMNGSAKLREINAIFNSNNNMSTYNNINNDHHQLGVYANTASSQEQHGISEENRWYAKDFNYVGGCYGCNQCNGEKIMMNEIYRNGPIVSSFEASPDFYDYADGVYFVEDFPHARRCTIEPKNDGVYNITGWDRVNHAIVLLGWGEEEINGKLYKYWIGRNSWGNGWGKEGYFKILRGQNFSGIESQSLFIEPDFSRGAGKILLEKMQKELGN

SMILES | % Inhibition @ 10 uM
COc1ccc(S(=O)(=O)Nc2ccccc2F)cc1 | 3.47%
CC(=O)c1ccc(OCCSc2nc3c(N)ncnc3[nH]2)cc1 | 1.93%
O=C(CN1C(=O)c2ccccc2C1=O)NC1=NCCS1 | 0.238%
COc1cc(NC(C)=O)c(Cl)cc1NC(=O)c1ccccc1 | -4.96%
O=C(CCNS(=O)(=O)c1ccc2nc(O)ccc2c1)N1CCCC2CCCCC21 (stereo not drawn) | -1.68%
CCCC(=O)c1cc2ccc(O)cc2oc1=O | -2.21%
Cc1cccc(NC2=C(Cl)C(=O)N(Cc3ccccc3)C2=O)c1C | 2.76%
CCCCN(C)C(=O)CSc1nc(NCc2ccc(OC)cc2)c2ccccc2n1 | 4.02%
CN1CCCN(Cc2ccc(F)c(F)c2)CC1 | 10.6%
CC(C)c1ccc(-c2nc(N3CCCC3)nc3[nH]nc(N)c23)cc1 | 1.94%
O=C(NC1CCCC1)c1ccc(Cn2cc(Br)cn2)cc1 | 1.67%
Cc1ccc(NS(=O)(=O)c2ccc(NC(=O)Nc3ccccc3)cc2)c(C)c1 | -0.473%
O=C(NC1CCCCC1)c1ccccc1CCc1ccccc1 | 0.162%
Cc1nc2c(c(C)nn2C)c(C)c1CCC(=O)NCCCN1CCCC1=O | -6.09%
Cn1c(=O)c2ncn(CC(=O)Nc3sc4c(c3C#N)CCCC4)c2n(C)c1=O | 1.57%
O=C(CSc1ccc(Cl)cc1)Nc1cccc(NC(=O)c2ccco2)c1 | -1.44%
COc1ccccc1-c1ccc(/C=C/C(=O)c2ccco2)o1 | 3.47%
Cc1nc2cc(NC(=O)N3CCCC3)ccc2n1C | -2.74%
COc1ccc(CNC23CN4CN(CN(C4)C2)C3)cc1OC | -13.5%
O=C(CCSc1nc2ccccc2s1)Nc1ccc(F)cc1 | -2.83%
CCOC(=O)c1cc(CC)sc1NC(=O)c1cccs1 | 2.92%
COc1ccccc1CC(=N)NOC(=O)c1ccc(C(C)(C)C)cc1 | 3.79%
COc1ccccc1N1CCN(Cc2ccc([N+](=O)[O-])cc2)CC1 | -1.07%
Cc1ccc(S(=O)(=O)n2nc(-c3cccnc3)nc2NCc2ccccc2)cc1 | 3.81%
COc1cccc(Oc2ccc(N/C=C/C(=O)C(C)(C)C)cc2)c1 | 5.54%
Cc1ccc(Nc2nc(-c3ccccc3)cs2)cc1Cl | -0.771%

SMILES | % Inhibition @ 10 uM
Cc1ccc(C(=O)Nc2ccc(C#N)cc2)cc1Br | 2.95%
CCCNC(=O)CCCn1c2ccccc2c2cnnc(O)c21 | -7.54%
CC(NS(=O)(=O)c1ccc(CN2C(=O)c3cccnc3C2=O)s1)c1ccc2c(c1)OCCO2 (stereo not drawn) | -0.438%
COc1nn2nnnc2c2ccccc12 | 0.947%
COc1ccc(C(=O)c2cccc([N+](=O)[O-])c2)cc1 | -2.28%
CCOc1cccc(C(=O)Nc2nnc(CSCc3ccccc3)s2)c1 | -0.142%
CCn1c(Oc2ccccc2)nc2c1c(=O)n(C)c(=O)n2C | 1.08%
COc1ccc(C)cc1NC(=O)c1ccc(C(=O)Nc2cc(C)ccc2OC)nc1 | 0.661%
Cc1cc(C)c(S(=O)(=O)NCC(=O)Nc2ccc3c(c2)OCCO3)c(C)c1 | 6.57%
CCSC1=NSC2=NC(=O)/C(=C\c3ccc(-c4cccc(C(=O)O)c4)o3)C(=N)N12 | 4.06%
CCN(CC)c1nc(C)nc2ccccc12 | 2.25%
CCc1ccc(CN2CCCN(C)CC2)cc1 | -3.87%
CCOc1cc2c(cc1/C=C1/NC(=O)N(CC(=O)Nc3ccccc3C)C1=O)OCO2 | -1.96%
N#Cc1ccccc1COC(=O)c1cccnc1N | -2.05%
Cc1ccc(S(=O)(=O)c2nnn3c2nc(N)c2cc(Cl)ccc23)cc1C | 7.82%
CNC(=S)NC1(C)CCS(=O)(=O)C1 (stereo not drawn) | 0.884%
O=C(CCC(=O)N1CC2CC(C1)c1cccc(=O)n1C2)NCc1cccs1 (stereo not drawn) | -7.02%
Cc1ccc(-c2cc(C(=O)NCCCn3ccnc3)c3ccccc3n2)o1 | 3.92%
CCCc1ccc(OCC(=O)Nc2ccc(CC#N)cc2)cc1 | -3.34%
CN1C(=O)COc2ccc(C(=O)c3ccccc3C(=O)O)cc21 | -2.21%
Cc1oc2c(c1C(=O)NCC1CCCO1)C(=O)c1ccccc1C2=O (stereo not drawn) | 1.91%
COc1cc2nc(N3CCN(Cc4ccccc4)CC3)n3nc(-c4ccccc4)nc3c2cc1OC | 4.16%
CC(NC(=O)CSc1ccccn1)c1ccccc1 (stereo not drawn) | -1.44%
N#Cc1ccc(-c2ccc3c(c2)OCO3)nc1SCC(=O)Nc1ccc(F)c(F)c1 | 5.64%
CCN(C(=O)COc1ccccc1C)c1ccccc1 | 4.74%
O=C(Nc1ccc(Cl)cc1C(=O)NCCN1CCOCC1)c1ccc(Cl)cc1Cl | -1.27%

SMILES | % Inhibition @ 10 uM
C=CCSc1nc2sc3c(c2c(=O)n1C1CCCCC1)CC(C)(C)OC3 | 3.32%
Cc1oc(-c2ccccc2F)nc1CN1CCC(C(=O)NC(C)C)CC1 | -4.71%
COc1ccc(C(=O)N2c3ccccc3C(Nc3ccccc3)CC2C)cc1 (stereo not drawn) | -2.24%
COc1ccc([N+](=O)[O-])cc1NC1CCC(c2ccccc2)CC1 (stereo not drawn) | 3.44%
COc1ccc(CCNC(=O)c2cc(O)nc3ccc(Br)cc23)cc1OC | -0.0542%
O=C(CCNS(=O)(=O)c1ccc(Br)cc1)NCc1ccc(Cl)cc1 | 5.99%
O=C(Nc1nccs1)C(Cc1ccccc1)N1Cc2ccccc2C1=O (stereo not drawn) | 3.87%
O=C(CCN1CCOCC1)NCC(=O)Nc1ccc(Br)cc1C(=O)c1ccccc1 | -2.94%
O=C(O)CCC(=O)Nc1ccccc1C(=O)N1CCC(O)(c2ccc(Cl)cc2)CC1 | -0.95%
CCCNC(=O)C1CCN(c2nnc(C)c3c(C)n(-c4ccc(OC)cc4)nc23)CC1 | 4.54%
COc1nc(-c2ccccc2)cc(-c2cnc(OC)nc2OC)n1 | -1.74%
CCCN1C(=O)c2ccc(F)cc2C1=O | 2.58%
COc1ccc(OC)c(NC(=O)c2cc(-c3ccc(C)o3)nc3ccccc23)c1 | 4.39%
Cc1ccc2c(c1)c1c3n2CCCNC3CCC1 (stereo not drawn) | -0.197%
FC(F)(F)c1ccc(CN2CCN(c3ccc(Cl)cc3)CC2)cc1 | 0.708%
COc1cccc(/C=C2\CCCC3=C2Nc2ncnn2C3c2cccc(OC)c2OC)c1OC (stereo not drawn) | -1.62%
CN1C(=O)C(C(=O)O)[C@@H]2c3ccccc3O[C@]13CCC[C@H]23 (stereo partly drawn) | 0.13%
CCc1nnc(C(=O)[C@H](CC)NC(=O)[C@H](CS(=O)(=O)Cc2ccccc2OC(F)F)/N=C(\C)NS(=O)(=O)c2ccccc2)o1 | -1.5%
CCOc1cc(C2CC(=O)NC(C)=C2C(=O)OC)cc(Br)c1OC (stereo not drawn) | -2.87%
O=C(O)CCCC(=O)Nc1nc(-c2ccc3ccccc3c2)cs1 | 2.38%
CC(C)Sc1nnc(NC(=O)C(=O)c2c[nH]c3ccccc23)s1 | 2.32%
Cc1ccc(C(=O)N/C(=C\c2cccs2)C(=O)Nc2ccc3c(c2)OCO3)cc1C | -0.968%
CC(=O)c1ccc2[nH]c(C(=O)O)c(CCN)c2c1 | 6.24%
COc1ccc(NC(=O)CSc2nc3c(c(C(F)(F)F)c2C#N)CCC3)c(OC)c1 | -2.83%
Cc1ccc(OCCCCCN2CCOCC2)c(Cl)c1 | 2.22%
NC(=O)c1c(NC(=O)c2cccc3ccccc23)sc2c1CCCCC2 | 31.8%

SMILES | % Inhibition @ 10 uM
CC(C)CCn1c(C(O)c2ccccc2)nc2ccccc21 (stereo not drawn) | -1.15%
Oc1ccc2cc3c4cc(Br)ccc4nc-3oc2c1O | 1.72%
CC1(C)CC(=O)C2=C(C1)N(c1ccc(Br)cc1)C(N)=C(C#N)C2c1cccnc1 (stereo not drawn) | 0.385%
CCN1CCN(C(=O)c2csc3c2CCCCC3)CC1 | 3.54%
CCC(C)c1ccc(NC(=O)COc2ccccc2)cc1 (stereo not drawn) | -2.3%
COc1cc(/C=C2/SC(=N)N(c3ccccc3F)C2=O)ccc1O | 3.29%
COCCN1C(=O)c2[nH]nc(-c3ccccc3O)c2C1c1ccc(C(C)C)cc1 (stereo not drawn) | 5.17%
N#CC1=C(N)S[C@@H](C(=O)c2ccc(Br)cc2)[C@@H]1c1cccs1 | -5.79%
COc1cccc(C(=O)COc2cccc(NC(=O)c3ccc(C)cc3)c2)c1 | 11%
CCn1ncc(Br)c1C(=O)NC(C)C1CC2CCC1C2 (stereo not drawn) | -4.16%
C=CCN1CC(=O)C(c2nc3ccccc3s2)=C1N | -1.22%
Cc1[nH]c2ccc(C(=O)N3CCC4(CC3)OCCO4)cc2c1C | 0.399%
CC(NC(=O)C1C(=O)N(CCO)C2(C)CC1c1ccccc1O2)c1ccccc1 (stereo not drawn) | -7.23%
CCOc1ccc(-n2c(SCC(=O)NC(C)CC)nc3nnc(C)c-3c2N)cc1 (stereo not drawn) | 8.71%
COc1cc2c(cc1OC)CN(C(=O)CSc1nc3c(cc1C#N)CCCC3)CC2 | 2.68%
Cc1c(Nc2ccc([N+](=O)[O-])c3nonc23)c(=O)n(-c2ccccc2)n1C | 1.38%
CCn1c(C(=O)O)c(CNCCc2ccc(Cl)cc2)c2ccc(C)cc21 | 2.6%
CN1CC(c2ccccc2)=Cc2c1ccc1nonc21 | 3%
Clc1ccc(-c2csc(NCc3ccco3)n2)cc1 | 1.4%
O=C(Nc1ccc2c(c1)OCO2)c1ccccc1F | 1.96%
CCN(CC)C(=O)c1ccc(C(=O)c2ccccc2)cc1 | 3.95%
OCCc1ccc(OCc2cccc3c2N=S=N3)cc1 | -6.05%
CC(C)Cn1cc(NC(=O)N2CCN(c3ccccn3)CC2)c2ccccc2c1=O | 4.42%
CCOC(=O)NCc1ccc2[nH]c(C)cc2c1 | -1.89%
